Screen size: about 310,000 compounds; about 2,200 (0.71%) showed an effect of 50% or more. Effects have a minus sign here. This is one part of the list.
Target: human ether-à-go-go-related gene (hERG) potassium channel (human, UniProt Q12809)
Assay: primary screen, population patch clamp on CHO cells stably expressing hERG

human ether-à-go-go-related gene (hERG) potassium channel, sequence (Q12809 whole entry, looked up): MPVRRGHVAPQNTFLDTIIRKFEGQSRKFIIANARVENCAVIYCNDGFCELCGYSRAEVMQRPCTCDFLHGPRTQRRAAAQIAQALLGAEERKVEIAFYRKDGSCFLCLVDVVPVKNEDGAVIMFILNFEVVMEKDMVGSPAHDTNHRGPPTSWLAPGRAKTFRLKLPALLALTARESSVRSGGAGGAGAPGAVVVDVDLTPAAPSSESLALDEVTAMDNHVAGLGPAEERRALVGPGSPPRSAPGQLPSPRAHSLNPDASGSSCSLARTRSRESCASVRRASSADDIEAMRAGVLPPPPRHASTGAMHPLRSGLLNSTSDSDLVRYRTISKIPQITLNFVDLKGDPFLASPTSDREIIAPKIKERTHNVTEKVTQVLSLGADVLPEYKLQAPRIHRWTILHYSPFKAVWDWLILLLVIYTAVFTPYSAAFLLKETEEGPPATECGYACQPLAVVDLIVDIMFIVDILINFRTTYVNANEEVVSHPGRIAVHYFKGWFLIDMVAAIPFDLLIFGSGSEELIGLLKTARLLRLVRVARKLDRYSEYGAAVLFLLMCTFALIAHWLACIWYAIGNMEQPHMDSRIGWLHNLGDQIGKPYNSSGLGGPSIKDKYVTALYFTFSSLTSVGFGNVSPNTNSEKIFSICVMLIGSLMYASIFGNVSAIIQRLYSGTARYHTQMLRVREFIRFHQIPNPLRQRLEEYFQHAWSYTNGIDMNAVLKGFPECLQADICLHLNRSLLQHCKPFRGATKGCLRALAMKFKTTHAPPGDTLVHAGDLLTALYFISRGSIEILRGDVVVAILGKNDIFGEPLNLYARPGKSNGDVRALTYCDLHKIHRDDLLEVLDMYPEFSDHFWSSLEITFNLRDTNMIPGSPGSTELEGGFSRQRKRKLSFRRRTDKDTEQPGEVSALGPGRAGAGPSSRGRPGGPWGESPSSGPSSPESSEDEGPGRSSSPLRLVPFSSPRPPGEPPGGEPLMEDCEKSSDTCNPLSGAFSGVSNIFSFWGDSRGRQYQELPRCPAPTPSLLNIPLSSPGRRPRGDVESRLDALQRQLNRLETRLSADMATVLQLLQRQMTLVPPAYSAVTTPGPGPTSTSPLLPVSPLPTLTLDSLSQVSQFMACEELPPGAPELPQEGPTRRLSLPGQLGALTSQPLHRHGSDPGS

Row | Structure (SMILES) | hERG current change (%, negative = inhibition) at 1uM [%]
1 | COc1ccc(CN2CSC(=S)N(Cc3ccc(OC)cc3)C2)cc1 | 13.8
2 | COc1cc(C(=O)N2CCN(c3ccccc3OC)CC2)c([N+](=O)[O-])cc1OC | 12.5
3 | O=C(O)C1=C[C@@H](C2CC2)C[C@@H](OCc2ccc(CO)cc2)O1 | 9.44
4 | COc1ccc(Cc2nnc(SCC(=O)N(c3ccccc3)C(C)C)n(N)c2=O)cc1 | 6.82
5 | CCOC(=O)Nc1ccc(C)cc1NC(=O)OCC | 13
6 | Oc1cc(NCc2cccnc2)ccc1-c1nc2ccccc2o1 | 13.2
7 | O=C(CSc1nnc(Cc2cccs2)n1CCc1ccccc1)N1CCCc2ccccc21 | 6.03
8 | COc1ccc(C(C)=O)cc1COC(=O)CCNS(=O)(=O)c1ccc(C)cc1 | 8.45
9 | CCN(CC(=O)Nc1ccccc1C(F)(F)F)C(=O)CSCC(=O)Nc1cc(C)on1 | 15.5
10 | COc1ccc2cnn(-c3ccccc3C)c(=O)c2c1OC | 17
11 | Cc1ccc(C)c(NC(=O)NCc2ccccn2)c1 | 3.31
12 | CCC(C)NC(=O)C1c2ccccc2C(=O)N1Cc1ccc(F)cc1 (stereo not shown) | 4.36
13 | O=C(NCc1ccncc1)C1CCN(S(=O)(=O)c2ccccc2)CC1 | -3.63
14 | Cc1ccc(C(=O)NNC(=S)NC(=O)c2ccc(Cl)cc2)cc1 | 10.5
15 | CC(=O)NC(NC(=S)Nc1ccccc1Br)C(Cl)(Cl)Cl (stereo not shown) | 13.4
16 | CC(C)CN1C(=O)C(=Nc2cccnc2)c2ccccc21 | 5.77
17 | O=C(Nc1ccccc1Cl)c1ccc(COc2ccc3c(c2)CCC3)cc1 | 15.4
18 | CCOC(=O)c1[nH]ncc1CN1CCCC(C(=O)c2cccc(Cl)c2)C1 (stereo not shown) | 6.01
19 | CN1C(=O)/C(=C/c2ccccc2OCc2cccc(F)c2)N(C)C1=S | 13.9
20 | COc1ccc2oc(=O)cc(C)c2c1 | 2.96
21 | CN(CC(=O)Nc1ccc(F)c(Cl)c1)S(=O)(=O)c1ccc2c(c1)n(C)c(=O)c(=O)n2C | 9.13
22 | Cc1nc2c(N=Nc3ccccc3F)c(N)nn2c(N)c1C#N | 3.85
23 | COC(=O)[C@H](Cc1c[nH]c2ccccc12)NC(=O)CCCc1c[nH]c2ccccc12 | 8.33
24 | COc1ccc(OCC(=O)Nc2cc3c(cc2C(=O)O)OCCCO3)cc1 | 14.7
25 | O=C(NC1CCCc2ccccc21)C1CCC(CNc2c(N3CCOCC3)c(=O)c2=O)CC1 (stereo not shown) | 16.2
26 | Cc1cccnc1NC(=O)c1ccc(S(=O)(=O)N2CC(C)OC(C)C2)cc1 (stereo not shown) | 6.65

Row | Structure (SMILES) | hERG current change (%, negative = inhibition) at 1uM [%]
27 | CC1CCN(C(=O)c2ccccc2NS(=O)(=O)c2ccccc2)CC1 | 11.4
28 | O.OC[C@H]1O[C@H](OC[C@H]2O[C@H](OC[C@H]3O[C@H](O[C@]4(CO)O[C@H](CO)[C@@H](O)[C@@H]4O)[C@H](O)[C@@H](O)[C@@H]3O)[C@H](O)[C@@H](O)[C@H]2O)[C@H](O)[C@@H](O)[C@H]1O | 21.7
29 | O=C(CSc1ccc2nnc(-c3ccccn3)n2n1)Nc1nccs1 | 7.18
30 | CCOC(=O)C(NC(=O)NC1CCCCC1)(c1ccccc1)C(F)(F)F (stereo not shown) | -5.25
31 | COc1cc2nc(CN3CCOCC3)n(CC(=O)N3CCCCCC3)c(=O)c2cc1OC | 7.99
32 | N#CC1(NC(=O)COc2cc(F)ccc2[N+](=O)[O-])CCCCC1 | 1.13
33 | Cc1ccc(S(=O)(=O)N2CCN(C(=O)CCCOc3cccc(C)c3)CC2)cc1 | 15.4
34 | O=c1c2ccccc2nc(-c2ccc(Cl)cc2Cl)n1CCCn1ccnc1 | -14
35 | CC(C)=CCC/C(C)=C/C=N/NC(=O)c1ccccc1[N+](=O)[O-] | -0.892
36 | Cc1cnc(C(=O)OCC(=O)N2CCN(S(=O)(=O)c3ccc(Cl)cc3)CC2)cn1 | 6.01
37 | Cc1cc(N2CCC(C)CC2)nc(-c2ccccc2O)n1 | 6.78
38 | OC(CNc1nc(C(F)(F)F)nc2ccccc12)c1ccccc1 (stereo not shown) | 10.5
39 | COc1ccc(OC)c(NC(=O)c2nc(S(=O)(=O)Cc3ccccc3)ncc2Cl)c1 | 5.45
40 | CCOC(=O)C1=C(C)NC(SCC(=O)OC)=C(C#N)C1c1ccc(C(=O)OC)cc1 (stereo not shown) | 3.85
41 | CCn1c(SCc2ccc(Cl)cc2)nnc1-c1ccccc1 | 7.72
42 | C/C(N)=C(/C#N)C(=O)CSc1nc2scc(-c3ccccc3)c2c(=O)n1C | 14.9
43 | O=C(NCc1ccc(Cl)cc1)C1CCCCN1S(=O)(=O)c1ccccc1 (stereo not shown) | 11.7
44 | O=C(CN1CCCCCCC1)Nc1ccc(Cl)cc1Cl | 12.8
45 | Cc1ccc(C2=C/C(=C/c3cccnc3)C(=O)O2)c(C)c1 | 15.8
46 | N#Cc1cccc(NC(=O)CSc2nnc(C3CC3)n2C2CC2)c1 | -11
47 | CO[C@H]1C=CO[C@@]2(C)Oc3c(C)c(O)c4c(O)c(c5c(c4c3C2=O)NC2(CCN(CC(C)C)CC2)N=5)=NC(=O)C(C)=CC=C[C@H](C)[C@H](O)[C@@H](C)[C@@H](O)[C@@H](C)[C@H](OC(C)=O)[C@@H]1C | 15.5
48 | COc1cc2c(cc1OC)C(C1C(=O)CC(C)CC1=O)N(C(=O)CCl)CC2 (stereo not shown) | 10.6
49 | O=C(O)CCc1ccc(-c2ccc(F)cc2)n1CC(=O)O | 5.46
50 | CCOC(=O)[C@@H]1[C@H]2COc3cc(OC)ccc3[C@@H]2N2C(=O)N(c3cccc(Cl)c3)C(=O)[C@]12C | 20.8
51 | Cc1ccc(Cl)cc1N1CCN(C(=O)C2CCN(S(=O)(=O)c3c(C)nn(C)c3C)CC2)CC1 | 3.41
52 | O=C1COc2ccc(C(=O)c3ccccc3C(=O)O)cc2N1 | 14.2
